Where “and” joins values, the source holds several entries; their conditions need not be identical. Equal values may be shown once. In all, about 270,000 compounds went through this assay and about 5,800 (2.1%) were called active. The inconclusive results got no clear call from the source; some entries with a clear call stand among them for comparison. Calls follow the shape of the dose curve; as a rule, active = well fitted inhibition curve with a large enough effect; inconclusive = small, poorly fitted or top-dose-only effect; inactive = flat fitted curve, though single readings scatter. A potency beside an inconclusive call is a rough fit, not a confirmed value.
target: Microtubule-associated protein tau (Homo sapiens) (UniProt P10636); assay: qHTS for Inhibitors of Tau Fibril Formation, Thioflavin T Binding; conditions: recombinant tau K18 P301L, heparin-induced fibrillization, ThT fluorescence; series mostly up to 57.4 µM; activity, negative = inhibition: at the top concentration; also: nearly all actives have a fitted effect of over 55% in size
Sequence of UniProt P10636 (P10636 whole entry, looked up): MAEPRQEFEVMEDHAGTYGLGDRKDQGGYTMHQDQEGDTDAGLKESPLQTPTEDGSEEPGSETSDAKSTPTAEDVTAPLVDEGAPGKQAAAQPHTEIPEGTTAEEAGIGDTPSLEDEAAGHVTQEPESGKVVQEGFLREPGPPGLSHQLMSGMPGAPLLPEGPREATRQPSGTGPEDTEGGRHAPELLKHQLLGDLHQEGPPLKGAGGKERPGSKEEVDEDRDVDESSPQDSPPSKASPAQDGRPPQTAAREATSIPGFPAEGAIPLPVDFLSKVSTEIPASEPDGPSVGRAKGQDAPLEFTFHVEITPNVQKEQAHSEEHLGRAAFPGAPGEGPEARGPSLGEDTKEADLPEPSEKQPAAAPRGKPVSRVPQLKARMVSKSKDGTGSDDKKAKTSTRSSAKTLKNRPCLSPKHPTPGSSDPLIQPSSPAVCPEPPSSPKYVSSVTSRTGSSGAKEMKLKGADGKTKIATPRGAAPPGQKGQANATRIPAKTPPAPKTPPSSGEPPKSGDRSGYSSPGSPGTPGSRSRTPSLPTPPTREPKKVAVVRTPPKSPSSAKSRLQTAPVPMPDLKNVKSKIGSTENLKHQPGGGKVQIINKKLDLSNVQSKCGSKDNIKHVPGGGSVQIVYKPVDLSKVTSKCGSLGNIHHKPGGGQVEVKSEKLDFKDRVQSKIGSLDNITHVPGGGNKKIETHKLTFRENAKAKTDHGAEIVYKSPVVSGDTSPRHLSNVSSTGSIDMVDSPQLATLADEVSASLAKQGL
In short: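 ThT emission at 510 nm, taken 1 hr after adding 30 uM dye, quantifies aggregates formed when 20 uM heparin acts on human tau K18 P301L for 6 hr at 37 C.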
% is scaled to controls: 0 for no effect and ±100 for the full control effect; potency is read from the fitted curve at half-maximal effect; tags tell the direction and shape of the fitted curve.

Compound	Potency	activity, negative = inhibition
O=C1OC(c2ccco2)=N/C1=C\c1ccc(-c2cccc(C(F)(F)F)c2)o1	inconclusive: 15.8 µM [inhibitor, partial curve]	
COc1ccc(/C=C/c2nc(C#N)c(NCCc3ccccc3)o2)cc1OC	inconclusive: 2.24 µM [inhibitor, full curve]	
O=C(c1ccco1)N(CC1CCCO1)c1nc(-c2ccccc2)cs1 (stereo not given)	inconclusive: 44.7 µM [inhibitor, single point]	
Cc1ccc(/C=N/NC(=O)CN2CCN(S(=O)(=O)c3ccc(Br)cc3)CC2)s1	inconclusive: 39.8 µM [inhibitor, single point]	
COc1ccc(NC(=O)c2c(C)oc3ccc(O)c(CN4CCCCCC4)c23)cc1Cl		inactive: -11.2%
N/C(=N\OC(=O)c1ccc([N+](=O)[O-])cc1)c1ccccn1	inconclusive: 14.1 µM [inhibitor, partial curve]	
O=c1oc2ccccc2c(Nc2ccc3ccccc3c2)c1[N+](=O)[O-]	inconclusive: 15.8 µM [inhibitor, partial curve]	
CCOc1ccc(N2C(=O)C(=O)/C(=C(/O)c3ccccc3)C2c2ccccc2[N+](=O)[O-])cc1 (stereo not given)	inconclusive: 17.8 µM [inhibitor, partial curve]	
CCCc1noc(-c2ccc(-c3ccccc3)cc2)n1	inconclusive: 11.2 µM [inhibitor, partial curve, poor fit]	
COc1ccc(-c2nc(SCc3cc(=O)c4cc(C)ccc4[nH]3)n[nH]2)cc1	inconclusive: 10 µM [inhibitor, partial curve]	
COc1ccc(-c2nc(C)c(CCNC(=O)C(=O)Nc3cc(C)cc(C)c3)s2)cc1OC	inconclusive: 7.94 µM [inhibitor, partial curve]	
COCc1cc(=O)[nH]c(=S)[nH]1	inconclusive: 39.8 µM [inhibitor, single point]	
COc1ccc(NC(=O)c2ccc3c(SCC(=O)O)c4c(nc3c2)CCC4)c(OC)c1	inconclusive: 8.91 µM [inhibitor, partial curve, poor fit]	
Cc1sc2ncn(CC(=O)N3CCN(c4cccc(Cl)c4)CC3)c(=O)c2c1S(=O)(=O)N1CCN(c2ncccn2)CC1		inactive: -0.328%
COc1ccccc1N1CCN(S(=O)(=O)CCNC(=O)COc2ccc(C(C)C)cc2)CC1	inconclusive: 35.5 µM [inhibitor, single point]	
CCC1(c2ccccc2)NC(=O)N(CC(=O)Nc2ccc3c(c2)OCO3)C1=O (stereo not given)	inconclusive: 20 µM [inhibitor, partial curve, poor fit]	
CCCN(CCC)CCNC(=O)c1ccc2c(c1)NC(=O)C(CS(=O)(=O)Cc1cccc(Br)c1)N2 (stereo not given)	inconclusive: 17.8 µM [inhibitor, partial curve]	
COc1ccc(N/N=C(/C#N)S(=O)(=O)c2nsc(C)c2C#N)cc1	inconclusive: 31.6 µM [inhibitor, partial curve]	
CN=C(c1ccc(C)cc1)n1c(=S)nc(-c2ccc(C)cc2)n(C)c1=S	inconclusive: 20 µM [inhibitor, single point]	
C=CCNC(=S)NNC(=O)c1ccc(=O)n(Cc2ccc(Cl)cc2Cl)c1		inactive: -7.66%
O=Nc1c(-c2ccccc2)cc2ccccn12	inconclusive: 15.8 µM [inhibitor, partial curve]	
C[N+]1(C)C2CCC1CC(OC(=O)C(O)c1ccccc1)C2 (stereo not given)		inactive: -1.31%

Compound	Potency	activity, negative = inhibition
COc1ccc(C(=O)Oc2ccc(/C=N/O)cc2)cc1	inconclusive: 20 µM [inhibitor, partial curve, poor fit]	
CCN1CCN(c2cc(C)c3cc(NC(=O)c4ccc5c(c4)OCO5)ccc3n2)CC1	inconclusive: 15.8 µM [inhibitor, partial curve]	
CC1CN(C(=O)CSc2nnc3c(Cl)cc(Cl)cn23)CC(C)O1 (stereo not given)		inactive: -8.54%
CCOc1cc(C=O)ccc1OCc1cc(=O)n2cc(C)ccc2n1	inconclusive: 20 µM [inhibitor, partial curve]	
O=C(Cc1ccc([N+](=O)[O-])cc1)N1N=C(c2ccncc2)CC1(O)C(F)(F)F (stereo not given)		inactive: 0.9%
COc1ccc(CNc2cccc(F)c2)cc1Br	inconclusive: 31.6 µM [inhibitor, partial curve]	
CC1CC(C)CN(CCOc2ccc(Br)cc2)C1 (stereo not given)		inactive: 1.65%
CCOc1ccc(NC(=O)CSc2nnc(-c3ccccn3)n2N)cc1	inconclusive: 12.6 µM [inhibitor, partial curve]	
COc1ccc(OC)c(Nc2nc(NCCC(C)C)nc(N)c2[N+](=O)[O-])c1	active: 25.1 µM	
Brc1ccc(-c2csc(N/N=C/c3ccco3)n2)cc1	active: 15.8 µM	
O=C(c1cc2ccccc2o1)N1CC=C(c2ccccc2)CC1	inconclusive: 7.94 µM [inhibitor, full curve]	
CCC(C)n1c(NC(=O)c2ccccc2)c(C#N)c2nc3ccccc3nc21 (stereo not given)	inconclusive: 14.1 µM [inhibitor, partial curve]	
Cc1cccc(NC(=O)c2ccc3c(c2)CCN3S(=O)(=O)c2ccccc2)c1C	inconclusive: 22.4 µM [inhibitor, single point]	
Cc1ccc(NC(=O)Nc2sc3nc4n(c(=O)c3c2C)CCC(C)CC4)c(Cl)c1 (stereo not given)	inconclusive: 4.47 µM [inhibitor, full curve]	
Cn1cc(C2=C(c3cn(CCCSC(=N)N)c4ccccc34)C(=O)NC2=O)c2ccccc21	active: 5.01 µM and active: 3.16 µM	
Cc1cc(C)n2nc(C(=O)N3CCN(c4ccc([N+](=O)[O-])cc4)CC3)nc2n1	inconclusive: 14.1 µM [inhibitor, partial curve]	
CCOc1cc(C(c2c(C)[nH][nH]c2=O)c2c(C)[nH][nH]c2=O)ccc1O	inconclusive: 28.2 µM [inhibitor, partial curve]	
O=C(CSc1oc(-c2ccc(F)cc2)nc1S(=O)(=O)c1ccc(F)cc1)NCC1CCCO1 (stereo not given)		inactive: -1.35%
COc1cccc(C2C(C#N)=C(N)OC(C(C)(C)C)=C2C#N)c1 (stereo not given)		inactive: -9.48%
CCC(=O)Oc1ccc(C(=O)Nc2ccc([N+](=O)[O-])cc2)cc1	inconclusive: 11.2 µM [inhibitor, partial curve]	
O=c1[nH]c2ccccc2nc1/C=C/c1ccccc1	inconclusive: 10 µM [inhibitor, partial curve]	
COc1ccc2cc3cc(C(=O)N4CCN(c5ccccc5F)CC4)oc3nc2c1	inconclusive: 39.8 µM [inhibitor, single point]	

Compound	Potency	activity, negative = inhibition
NNC(=O)/C=C/c1ccc(Cl)cc1Cl	inconclusive: 25.1 µM [inhibitor, partial curve]	
O=c1[nH]c(=O)n(C2CCCCC2)c(O)c1C1=Nc2ccccc2SC(c2ccc(Cl)cc2)C1 (stereo not given)		inactive: -11.7%
COc1cc(N=C2C(=O)N3c4c(cccc42)C(C)=CC3(C)C)cc(OC)c1	inconclusive: 14.1 µM [inhibitor, partial curve]	
Cc1ccc(-c2cc(NC(=O)CCl)n(-c3ccccc3)n2)cc1	inconclusive: 35.5 µM [inhibitor, single point]	
Cc1ccc(/C=C2\SC(=S)N(c3cccnc3)C2=O)o1	active: 15.8 µM	
CC(C)OC(=O)CSc1nnc(Cc2ccccc2)n1Cc1ccco1		inactive: 10.6%
COc1cc(Nc2ccccc2Cl)c([N+](=O)[O-])nc1[N+](=O)[O-]	inconclusive: 28.2 µM [inhibitor, partial curve]	
O=C(Nc1ccc(N2CCN(C(=O)c3ccccc3)CC2)cc1)c1ccc2c(c1)OCO2	inconclusive: 12.6 µM [inhibitor, partial curve]	
CC(=O)OC1CC2C(C)(C)C(O)CCC2(C)C2CC[C@]3(C)C(=CC(=O)OC3c3ccoc3)C12C (stereo not given in full)		inactive: -4.26%
CCOc1ccccc1CN1CCc2nc(Nc3ccc4c(c3)OCCO4)ncc2C1	inconclusive: 17.8 µM [inhibitor, partial curve, poor fit]	
COc1ccc(CCNC(=O)c2cc3sccc3n2Cc2ccc(Cl)cc2)cc1OC		inactive: -16.2%
O=C(NCCc1ccccc1Cl)c1ccc2c(=O)n(-c3ccccc3)c(=O)[nH]c2c1		inactive: -8.02%
COc1ccc(-n2ncc3c(NCc4ccco4)ncnc32)cc1	inconclusive: 7.94 µM [inhibitor, partial curve, poor fit]	
CCn1c(=O)cc(OCC(=O)N2CCN(c3ccc(OC)cc3)CC2)c2ccccc21	inconclusive: 17.8 µM [inhibitor, partial curve, poor fit]	
Cc1cnc(N)c2c(=O)oc3ccccc3c12		inactive: -10.5%
Cc1ccccc1Cc1c(C)nc2c(C(=O)NCc3ccco3)cnn2c1C	inconclusive: 39.8 µM [inhibitor, partial curve]	
CCOC(=O)c1c(NC(=S)NC(=O)/C=C/c2cccs2)sc(C)c1C	inconclusive: 39.8 µM [inhibitor, single point]	
COc1cc(/C=N/NC(=O)c2ccc(CSc3nncn3C)cc2)cc(OC)c1O	inconclusive: 28.2 µM [inhibitor, partial curve]	
Cc1cccc(-n2c(C)nc3cc(C(=O)NCCC4=CCCCC4)ccc32)c1	inconclusive: 11.2 µM [inhibitor, partial curve]	
O=C(CSc1nc(O)c(C2CCCCC2)c(=O)[nH]1)N1CCOCC1	inconclusive: 8.91 µM [inhibitor, partial curve]	
COc1cc(NC(=O)c2ccc3c(=O)n(Cc4ccco4)c(=S)[nH]c3c2)cc(OC)c1OC	inconclusive: 20 µM [inhibitor, single point]	
